This is an account of results in patent publication US20250297021A1 (SHANDONG SIMCERE BIOPHARMACEUTICAL CO NO 1, published 2025).

Test [1] has as its target T1, BCMA expressed endogenously on U266 and H929 cells (UniProt Q02223 1-184, limits assumed).
T1 construct: whole, on cells; The cell line (U266 or H929) is named under assay in each row; also called B cell maturation antigen; CD269
T1 sequence (looked up): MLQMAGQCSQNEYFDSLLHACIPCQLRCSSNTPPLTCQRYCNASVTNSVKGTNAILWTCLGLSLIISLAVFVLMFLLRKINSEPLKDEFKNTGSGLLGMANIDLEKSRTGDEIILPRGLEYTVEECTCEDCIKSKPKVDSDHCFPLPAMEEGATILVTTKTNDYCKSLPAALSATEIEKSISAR
Nature of the test: FACS on U266 cells. Here is the method:
(§1) The desired cells were scale-up cultured in T-75 cell culture flasks to the logarithmic growth phase, and the cells were pipetted into a single cell suspension. After the cells were counted, the cells were centrifuged and the cell pellet was resuspended in FACS buffer (PBS+2% fetal calf serum) to 2×10⁶ cells per ml, and the suspension was added to the 96-well FACS reaction plate at 50 μl per well, then the sample to be tested of the chimeric antibody was added at 50 μl per well and the mixture was incubated at 4° C. for 1 h. The obtained mixture was centrifuged and washed 3 times with a PBS buffer. […] The obtained mixture was centrifuged and washed 3 times with a PBS buffer. 100 μl of the mixture was taken for detection and result analysis by FACS (FACS Canto™, purchased from BD Company). Data analysis was performed by software (FlowJo) to obtain the mean fluorescence intensity (MFI) of the cells. Then, a software (GraphPad Prism8) was used for analysis, data fitting and EC50 calculation. The results are shown in Table 10 and FIGS. 10A-10B, FIGS. 11A-11B, and FIGS. 12A-12B. All seven chimeric antibodies bind to three types of BCMA-expressing endogenous cells.
(§2) The specific method was the same as that in Example 5 (C). First, the binding of humanized antibodies to U266 cells was detected. Based on the results, some humanized antibodies were selected and tested for binding to H929 cells. The remaining humanized antibodies were not tested for binding to H929 cells by FACS (indicated by “/” in the table). All humanized antibodies bind to U266 cells, and all humanized antibodies that bind to the H929 cell in the test bind to H929 cells.

Test [2] deals with T1, BCMA expressed endogenously on U266 and …. Nature of the test: FACS on H929 cells. How it is done: as §1, §2

Substitutions are numbered along the chain they refer to.

B1: BCMA-05 VL1VH1 (Fc fusion)
scFv: EVQLVQSGAEVKKPGSSVKVSCKASGYMFTDHTFHWVRQAPGQGLEWMGYIYPRDDNTKYNEKFKGRVTITADKSTSTAYMELSSLRSEDTAVYYCARAGYYGSSHAMDYWGQGTTVTVSSGGGGSGGGGSGGGGSDIQMTQSPSSLSASVGDRVTITCKASQDVSTAVAWYQQKPGKSPRLLIYSASSRYTGVPSRFSGSGSGTDFTFTISSLQPEDIATYYCQQLYSTPWTFGGGTKVEIK[human IgG1 Fc with C220S (EU numbers) not spelt out]
notes: humanized scFv-Fc
Usually EC50 stands for the midpoint of the concentration-response curve. Lower therefore signals higher potency in that assay. For the molecule B1, the results for the EC50 in test [1] and in test [2] were 13.2 nM and 8.79 nM, respectively. The “Maximum mean fluorescence intensity” value in test [1] was found to be 2550; in test [2], 14700.

B2: BCMA-05 VL2VH4 (Fc fusion)
scFv: B1 scFv with I70L, S196D
notes: humanized scFv-Fc
In the case of B2, the EC50 worked out at 25 nM in test [1] and 11.2 nM in test [2]. Moreover, the “Maximum mean fluorescence intensity” value in test [1] was determined as 2210; in test [2], 13000.

B3: BCMA-05 VL1VH4 (Fc fusion)
scFv: B1 scFv with I70L
notes: humanized scFv-Fc
For B3, in test [1], the EC50 amounted to 14.8 nM and the “Maximum mean fluorescence intensity” value was 2450. In test [2], a half-maximal response (EC50) required 9.51 nM and the “Maximum mean fluorescence intensity” value came out at 14800.

B4: BCMA-05 VL1VH2 (Fc fusion)
scFv: B1 scFv with V2G, L4M
notes: humanized scFv-Fc
Regarding B4, in test [1], the EC50 was determined as 12 nM and the “Maximum mean fluorescence intensity” value came to 2620. Also, in test [2], the EC50 was found to be 7.78 nM and the “Maximum mean fluorescence intensity” value came to 15100.

B5: BCMA-05 VL2VH2 (Fc fusion)
scFv: B1 scFv with V2G, L4M, S196D
notes: humanized scFv-Fc
Take B5: the figures for the EC50 in test [1] and in test [2] were 18.1 nM and 9.07 nM, respectively. For the same molecule, the “Maximum mean fluorescence intensity” value in test [1] is 2430; in test [2] it was 14700.

B6: BCMA-05 VL2VH3 (Fc fusion)
scFv: B1 scFv with V37M, S196D
notes: humanized scFv-Fc
With B6, in test [1], a half-maximal effect (EC50) was put at 20.1 nM and the “Maximum mean fluorescence intensity” value stood at 2470. Moreover, in test [2], the EC50 is 9.72 nM and the “Maximum mean fluorescence intensity” value turned out to be 14700.

B7: BCMA-05 VL1VH3 (Fc fusion)
scFv: B1 scFv with V37M
notes: humanized scFv-Fc
Regarding B7, in test [1], the half-maximal effective concentration (EC50) was determined as 11.2 nM and the “Maximum mean fluorescence intensity” value came to 2620. In test [2], the midpoint of the response, the EC50, lay at 7.61 nM and the “Maximum mean fluorescence intensity” value turned out to be 15300.

B8: BCMA-05 VL2VH1 (Fc fusion)
scFv: B1 scFv with S196D
notes: humanized scFv-Fc
For B8, in test [1], the midpoint of the response, the EC50, lay at 21.7 nM and the “Maximum mean fluorescence intensity” value was determined as 2350. Moreover, in test [2], the concentration for a half-maximal effect (EC50) came out at 11.5 nM and the “Maximum mean fluorescence intensity” value came to 14500.

B9: BCMA-06 VL2aVH2 (Fc fusion)
scFv: EVKLVESGGGLVQPGGSLRLSCAASGIDFSRYWMSWVRQAPGKGLEWVAEINPDSSTINYAPSLKDRFTISRDNAKNSLYLQMNSLRAEDTAVYYCAIFYYANYYAMDYWGQGTTVTVSSGGGGSGGGGSGGGGSDIVMTQSPDSLAVSLGERATINCKASQNVDTNVAWYQQKPGQSPKALIYSASYRFSGVPDRFSGSGSGTDFTLTISSLQAEDVAVYYCQQYNAYPFTFGQGTKLEIK[human IgG1 Fc with C220S (EU numbers) not spelt out]
As for B9, in test [1], the EC50 worked out at 14.4 nM and the “Maximum mean fluorescence intensity” value amounted to 993. In test [2], the EC50 came out at 29.6 nM and the “Maximum mean fluorescence intensity” value was found to be 17200.

B10: BCMA-06 VL2aVH3 (Fc fusion)
scFv: B9 scFv with V5L, E6Q
For B10, in test [1], the EC50 was found to be 67.6 nM and the “Maximum mean fluorescence intensity” value was determined as 2570. For the same molecule, in test [2], the EC50 stood at 17.8 nM and the “Maximum mean fluorescence intensity” value worked out at 20800.

B11: BCMA-06 VL2aVH1 (Fc fusion)
scFv: B9 scFv with K3Q
Take B11: in test [1], the response was half-maximal at 47.1 nM (EC50) and the “Maximum mean fluorescence intensity” value worked out at 1300. Moreover, in test [2], the EC50 was found to be 32.8 nM and the “Maximum mean fluorescence intensity” value was 16800.

B12: BCMA-07 VL1VH2 (Fc fusion)
scFv: EVQLVQSGAEVKKPGSSVKVSCKASGYTFTDYWTHWVRQAPGQGLEWMGYINHGSGYTKYNQKFKDRVTLTADKSTSTAYMELSSLRSEDTAVYYCARLTGSYYFDYWGQGTTVTVSSGGGGSGGGGSGGGGSDIQMTQSPSSLSASVGDRVTITCSASSSVSYMHWYQQKPGKSPKRLIYDTSKLASGVPSRFSGSGSGTEFTLTISSLQPEDFATYYCQQWSSNPLTFGQGTKLEIK[human IgG1 Fc with C220S (EU numbers) not spelt out]
notes: humanized scFv-Fc
B12: the “Maximum mean fluorescence intensity” value in test [1] was 4250. Further, in test [2], the EC50 came to 126 nM and the “Maximum mean fluorescence intensity” value worked out at 20700.

B13: BCMA-07 VL4VH3 (Fc fusion)
scFv: B12 scFv with M48I, V68A, D134Q, K174T, L179W
notes: humanized scFv-Fc
With B13, the EC50 in test [1] stood at 40.1 nM; in test [2], 23.1 nM. Also, the “Maximum mean fluorescence intensity” value turned out to be 2700 in test [1] and 19900 in test [2].

B14: BCMA-07 VL2VH3 (Fc fusion)
scFv: B12 scFv with M48I, V68A, L179W
notes: humanized scFv-Fc
Take B14: in test [1], the EC50 was determined as 376 nM and the “Maximum mean fluorescence intensity” value was determined as 4160. Besides, in test [2], the EC50 is 28.2 nM and the “Maximum mean fluorescence intensity” value was found to be 20600.

B15: BCMA-07 VL1VH3 (Fc fusion)
scFv: B12 scFv with M48I, V68A
notes: humanized scFv-Fc
On to B15, for which the EC50 came to 61 nM in test [1] and 55.9 nM in test [2]. Moreover, the results for the “Maximum mean fluorescence intensity” value in test [1] and in test [2] were 1420 and 14500, respectively.

B16: BCMA-07 VL3VH2 (Fc fusion)
scFv: B12 scFv with D134Q, L179W
notes: humanized scFv-Fc
Regarding B16, the “Maximum mean fluorescence intensity” value in test [1] came to 33500; in test [2], 73200.

B17: BCMA-07 VL3VH3 (Fc fusion)
scFv: B12 scFv with M48I, V68A, D134Q, L179W
notes: humanized scFv-Fc
Regarding B17, the “Maximum mean fluorescence intensity” value came out at 24800 in test [1] and 52900 in test [2].
